The values below come from the supplement of paper PMC6206098.

± gives the uncertainty stated by the source. The sequences are guide strands of siRNAs; only the seed at positions 2 to 7 varies.

What is called cell viability is a read-out of living cells in per cent, often relative to untreated cells.

One series concerns 3LL. Briefly: cell viability relative to siNT1 control; higher = less toxic. As to conditions: concentration: 10 nM; 96 h; Mus musculus.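 Further: Luminescence-based viability of cells reverse transfected in 384-well plates with lipid-complexed siRNAs built on a non-toxic 19mer backbone whose passenger strand carries 2′-O-methyl groups at positions 1 and 2, triplicates.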
Another series deals with H460. Nature of the series: cell viability relative to lipid-only control; HeyA8 human ovarian and H460 human lung cancer; M565 mouse liver and 3LL mouse lung cancer; siNT1 is a non-toxic control siRNA; higher = less toxic. As to conditions: concentration: 10 nM; 96 h; Homo sapiens.
The next series concerns HeyA8. The description is as above. As to conditions: concentration: 10 nM; 96 h; Homo sapiens.
The next series relates to M565. Described as above. The note with it: concentration: 10 nM; 96 h; Mus musculus.
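Wherever cell viability relative to lipid-only control is given: reverse lipid transfection in 384-well plates, in triplicate, of duplexes on a non-toxic 19mer backbone with passenger strand 2′-O-methylated at positions 1 and 2, luminescence viability read-out.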

Take UUUACAGACAUGUAAACCAAA: the cell viability in the series with 3LL came to 107 ± 7.7%; in the series with H460, 105 ± 14%; with HeyA8, 98.2 ± 7.9%; in the series with M565, 82 ± 15%.
In the case of UUGAGAUACAUGUAAACCAAA, the cell viability in the series on 3LL was found to be 38.6 ± 4%; in the series with H460, 71.2 ± 4.1%; in the series on HeyA8, 69.6 ± 1.6%; with M565 it was 15.1 ± 0.48%.
As for UCGGUGCACAUGUAAACCAAA, the cell viability with 3LL turned out to be 25.2 ± 3.4%; in the series on H460 it was 19 ± 1.8%; in the series on HeyA8 it was 15.6 ± 1.2%; in the series with M565, 18.7 ± 0.8%.
Taken in the same sequence, the figures for UGUUCGCACAUGUAAACCAAA were 84.6 ± 3%, 78.9 ± 2.5%, 57 ± 6.6% and 32.6 ± 6.9%.
Taken in the same sequence, the figures for UUUCAGUACAUGUAAACCAAA were 75.4 ± 6.9%, 50.9 ± 2.5%, 72.5 ± 1.1% and 52.5 ± 6.3%.
Taken in the same sequence, the figures for UAUGAUGACAUGUAAACCAAA were 105 ± 9.2%, 60.8 ± 5.7%, 83.1 ± 5.6% and 83.3 ± 13%.
Regarding UGGUGAGACAUGUAAACCAAA, the cell viability with 3LL is 4.66 ± 1.1%; with H460, 20.7 ± 3%; in the series with HeyA8, 17.8 ± 1.7%; in the series on M565, 10.4 ± 1.8%.
Take UCCCGUGACAUGUAAACCAAA: the cell viability with 3LL amounted to 93.5 ± 27%; in the series on H460, 90.1 ± 7.1%; in the series with HeyA8 it was 86.8 ± 8.3%; in the series on M565, 71.1 ± 17%.
Taken in the same sequence, the figures for UUCCAUGACAUGUAAACCAAA were 107 ± 27%, 53 ± 0.67%, 89.8 ± 9.3% and 103 ± 6.3%.
The like results for UACACGCACAUGUAAACCAAA were, in that order, 21.6 ± 4.1%, 41.3 ± 4.7%, 40.4 ± 6.8% and 5.21 ± 1.1%.
Taken in the same sequence, the figures for UCCAGGGACAUGUAAACCAAA were 35 ± 2.7%, 39.5 ± 2.1%, 45.9 ± 3.9% and 19.3 ± 4%.
In the case of UGCGAUGACAUGUAAACCAAA, the cell viability with 3LL turned out to be 84.1 ± 6%; in the series on H460, 69.6 ± 5.8%; with HeyA8 it was 74.1 ± 7.3%; in the series with M565, 85.5 ± 2.1%.
Taken in the same sequence, the figures for UAACCGAACAUGUAAACCAAA were 89 ± 4.9%, 67.4 ± 3.9%, 88.2 ± 1.7% and 66.8 ± 7.7%.
Taken in the same sequence, the figures for UGAUGUGACAUGUAAACCAAA were 83.2 ± 11%, 71.9 ± 18%, 57.7 ± 5.1% and 59.7 ± 6.3%.
With UAAUGUCACAUGUAAACCAAA, the cell viability in the series on 3LL is 48.6 ± 5.9%; in the series with H460 it was 100 ± 5.4%; in the series with HeyA8, 80.3 ± 7.4%; with M565 it was 23.4 ± 7.2%.
With UCGGACGACAUGUAAACCAAA, the cell viability came out at 84.9 ± 19% with 3LL, 55.6 ± 5.8% in the series on H460, 81.7 ± 6.4% in the series on HeyA8 and 53.6 ± 2.1% in the series on M565.
For the sequence UCUAUCCACAUGUAAACCAAA, the cell viability turned out to be 79.3 ± 14% with 3LL, 54.5 ± 5% with H460, 58.5 ± 2.1% in the series with HeyA8 and 60 ± 13% in the series with M565.
Taken in the same sequence, the figures for UAGAAGUACAUGUAAACCAAA were 71.3 ± 5.2%, 46 ± 7.4%, 40.8 ± 3.4% and 59.2 ± 4.5%.
The like results for UUGGAUAACAUGUAAACCAAA were, in that order, 95.8 ± 13%, 85.9 ± 15%, 96.3 ± 13% and 100 ± 20%.
Taken in the same sequence, the figures for UACGUGUACAUGUAAACCAAA were 75.6 ± 5.5%, 65.3 ± 5.1%, 63.5 ± 5.1% and 44.6 ± 3.2%.
As to UAAGUAGACAUGUAAACCAAA, the cell viability in the series with 3LL is 83.6 ± 13%; with H460, 88.6 ± 15%; in the series on HeyA8, 75.8 ± 13%; in the series with M565 it was 75.2 ± 12%.
Taken in the same sequence, the figures for UCCAUCAACAUGUAAACCAAA were 90.6 ± 14%, 71.2 ± 8.3%, 80.1 ± 5.4% and 44 ± 10%.
The like results for UCGGCGCACAUGUAAACCAAA were, in that order, 43.3 ± 5.7%, 24.1 ± 1.3%, 11.3 ± 1.3% and 19.1 ± 2.5%.
With UGCAUAAACAUGUAAACCAAA, the cell viability in the series with 3LL was 86.7 ± 12%; in the series on H460, 97.8 ± 2.3%; in the series on HeyA8, 81.2 ± 4.3%; with M565, 77.4 ± 3.9%.
On to UGCUAACACAUGUAAACCAAA, for which the cell viability with 3LL turned out to be 1.75 ± 0.22%; with H460, 4.04 ± 0.14%; in the series on HeyA8, 2.66 ± 0.15%; in the series with M565 it was 10.9 ± 2.3%.
As for UUACGCAACAUGUAAACCAAA, the cell viability stood at 96.6 ± 3.9% with 3LL, 74.9 ± 7.7% in the series on H460, 98.8 ± 7.5% with HeyA8 and 107 ± 3.1% with M565.
Taken in the same sequence, the figures for UGUCGUUACAUGUAAACCAAA were 53.6 ± 10%, 60.6 ± 9%, 53.6 ± 6.6% and 29.8 ± 4%.
Taken in the same sequence, the figures for UGGCACUACAUGUAAACCAAA were 13.5 ± 1.2%, 21.6 ± 1.9%, 23.4 ± 1.2% and 14.5 ± 2.7%.
The like results for UACUUUAACAUGUAAACCAAA were, in that order, 99.8 ± 12%, 84.5 ± 20%, 73 ± 3.8% and 84.1 ± 1.7%.
